According to PubChem BioAssay AID651711 (Broad Institute, 2012):
Out of some 350,000 compounds screened, about 180 (0.051%) were called active. The inconclusive results got no clear call from the source; some entries with a clear call stand among them for comparison.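 Rule for the calls: active = mean replicate inhibition above about 25%, with every replicate also reaching it (limit read from the data, passing the limit was not always enough); inconclusive = only one of those two criteria met; inactive = neither criterion met.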 A structure can be active in one record and inactive in another.

What follows are molecules tested against Protein disulfide-isomerase A6 (Homo sapiens) (UniProt Q15084) (assay: inhibitors of ERp5-driven insulin aggregation, primary screen, biochemical, turbidity, absorbance 650 nm, single point (AID 651711)). Conditions: 90 min, at 9.99 µM, hits give high values.
Chain of UniProt Q15084 (Q15084 whole entry, looked up): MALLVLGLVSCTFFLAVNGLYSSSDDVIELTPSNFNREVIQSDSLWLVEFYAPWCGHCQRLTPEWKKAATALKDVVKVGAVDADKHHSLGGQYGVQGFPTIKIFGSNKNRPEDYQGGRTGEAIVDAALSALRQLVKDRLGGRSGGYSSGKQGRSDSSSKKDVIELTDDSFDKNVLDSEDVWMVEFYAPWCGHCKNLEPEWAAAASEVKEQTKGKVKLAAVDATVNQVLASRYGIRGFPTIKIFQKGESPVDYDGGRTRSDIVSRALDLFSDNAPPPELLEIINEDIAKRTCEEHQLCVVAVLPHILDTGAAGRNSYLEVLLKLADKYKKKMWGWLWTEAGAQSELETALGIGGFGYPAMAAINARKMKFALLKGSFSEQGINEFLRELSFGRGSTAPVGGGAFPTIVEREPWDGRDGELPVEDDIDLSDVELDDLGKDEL

**Q.** How did the inhibition turn out when CCCCNCc1cc2ccccc2o1 was run?
**A.** inconclusive: 39.5%

**Q.** For O=C(Nc1ccccc1C(=O)N1CCCCC1)NC1CCCCC1, which inhibition is on record?
**A.** inconclusive: 45.1%

**Q.** Which inhibition does the source give for CC(C)CN1CCC(CN(C)Cc2nc(-c3cnccn3)no2)CC1 here?
**A.** inconclusive: 35.6%

**Q.** For CC(=O)Nc1ccc(S(=O)(=O)NCCC(=O)Nc2cccc(Cl)c2)cc1, which inhibition is on record?
**A.** inactive: 3.22%

**Q.** How did the inhibition turn out when Cc1ccc2c(c1)c1c(n2CC(O)CN2CCCCC2C)CCCC1 (stereo unspecified) was run?
**A.** inconclusive: 37.1%

**Q.** For COc1ccc(CN2C3CCCC2CC(NC(=O)/C=C/c2ccccc2)C3)cc1 (stereo unspecified), which inhibition is on record?
**A.** inconclusive: 30.7%

**Q.** For COCCNC(=O)c1ccc2c(=O)n(CCCN3CCCC3=O)c(=S)[nH]c2c1, which inhibition is on record?
**A.** inconclusive: 29.5%

**Q.** Which inhibition does the source give for O=C(c1ccccc1SCc1ccccc1)N1CCOCC1 here?
**A.** inconclusive: 27.9%

**Q.** For O=C(NC1CCCC1)[C@@H]1[C@@H](CO)[C@@H]2Cn3c(ccc(-c4cccnc4)c3=O)[C@H]1N2CC1CC1, which inhibition is on record?
**A.** active: 27.7%

**Q.** Which inhibition does the source give for CCCN1C[C@H](C)[C@H](OC)CN(C)C(=O)c2cc(NC(=O)C3CC3)ccc2OC[C@@H]1C here?
**A.** inactive: -4.78%

**Q.** Which inhibition does the source give for O=C1c2cccc3c(O)ccc(c23)C(=O)N1Cc1ccco1 here?
**A.** inactive: 6.18%

**Q.** Which inhibition does the source give for O=C(COC(=O)/C=C/c1nc2ccccc2s1)Nc1ccccc1Oc1ccccc1 here?
**A.** inconclusive: 27.7%

**Q.** Which inhibition does the source give for COc1ccc(C#Cc2ccc3c(c2)[C@@H]2[C@@H](CCN2C(=O)C2CCCC2)[C@H](CO)N3)cc1 here?
**A.** inactive: -10.1%

**Q.** Which inhibition does the source give for CSCCC(NC(=O)c1ccc(C(C)(C)C)cc1)C(=O)O (stereo unspecified) here?
**A.** inactive: 2.9%

**Q.** Which inhibition does the source give for COc1ccccc1S(=O)(=O)N1C[C@H](O)COC[C@H]2O[C@@H](CC(=O)O)CC[C@@H]21 here?
**A.** active: 35.9%

**Q.** With CN(C)C(=O)C[C@H]1C=C[C@H](NC(=O)C2CCOCC2)[C@@H](CO)O1 as the molecule, how does the inhibition read?
**A.** inconclusive: 45.2%

**Q.** For C[C@H](CO)N1C[C@H](C)[C@H](CN(C)Cc2ccc(C(F)(F)F)cc2)Oc2ccc(NC(=O)Nc3cccc4ccccc34)cc2CC1=O, which inhibition is on record?
**A.** active: 64.3%

**Q.** Which inhibition does the source give for CCC(C)[C@H](NC(=O)N1CCN(C)CC1)C(=O)OC (stereo partly specified) here?
**A.** inconclusive: 37.7%

**Q.** How did the inhibition turn out when CC(C(=O)Nc1ccc(C#N)cc1)N(C)Cc1cccs1 (stereo unspecified) was run?
**A.** inactive: 1.06%

**Q.** How did the inhibition turn out when Cc1cccc(-n2c(=O)cc(N3CCN(c4ccc(F)cc4)CC3)[nH]c2=O)c1 was run?
**A.** inactive: 1.71%

**Q.** For O=S(=O)(Nc1nc2ccccc2nc1NCC1CCCO1)c1cccc(Cl)c1 (stereo unspecified), which inhibition is on record?
**A.** inconclusive: 44%

**Q.** For O=C(C[C@@H]1C[C@H]2c3cc(NC(=O)Nc4ccccc4F)ccc3O[C@H]2[C@H](CO)O1)NCC(F)(F)F, which inhibition is on record?
**A.** active: 84.1%

**Q.** O=C(C1CCC(CNc2c(N3CCOCC3)c(=O)c2=O)CC1)N1CCN(c2ccccc2)CC1 (stereo unspecified) was tested. Which inhibition did it give?
**A.** inconclusive: 43.6%

**Q.** How did the inhibition turn out when O=C(Nc1ccc(N2CCCC2)cc1)c1cccc(-c2cc3ccccc3oc2=O)c1 was run?
**A.** inactive: 4.71%

**Q.** With CO[C@H]1CN(C)C(=O)c2ccc(NC(=O)Nc3ccc(C(F)(F)F)cc3)cc2OC[C@H](C)NC[C@H]1C as the molecule, how does the inhibition read?
**A.** inactive: 4.59%

**Q.** Which inhibition does the source give for COc1ccc(S(=O)(=O)Nc2ccc3c(c2)CC(=O)N([C@H](C)CO)C[C@H](C)[C@H](CN(C)C(=O)Nc2ccccc2)O3)cc1 here?
**A.** active: 64.1%

**Q.** CCC(=O)N(C)C[C@H]1Oc2cc(-c3ccc(C#N)cc3)ccc2S(=O)(=O)N([C@@H](C)CO)C[C@@H]1C was tested. Which inhibition did it give?
**A.** active: 85.4%

**Q.** For O=C(NNC(=O)c1ccc2ccccc2c1)Nc1ccc(F)cc1, which inhibition is on record?
**A.** active: 26%

**Q.** How did the inhibition turn out when COc1cccc(NC(=O)CN(C)C(=O)CSc2nc3ccccc3s2)c1 was run?
**A.** inactive: 2.85%

**Q.** For COC(=O)[C@@H]1CCCN1Cc1c(C(=O)N2CCCCC2)nc2c(C)cccn12, which inhibition is on record?
**A.** inconclusive: 50.5%

**Q.** How did the inhibition turn out when O=C(C[C@@H]1CC[C@H]2[C@@H](COC[C@H](O)CN2C(=O)Nc2ccc(C(F)(F)F)cc2)O1)NCC1CC1 was run?
**A.** inactive: -5.75%

**Q.** How did the inhibition turn out when Cc1ccc(S(=O)(=O)N2CCOCC2)cc1NC(=O)COC(=O)c1n[nH]c(=O)c2ccccc12 was run?
**A.** inactive: -1.7%

**Q.** With C[C@@H]1CN([C@H](C)CO)C(=O)c2cc(NS(=O)(=O)c3cccs3)ccc2O[C@@H](C)CCCCO[C@H]1CN(C)C(=O)Nc1ccc(F)cc1 as the molecule, how does the inhibition read?
**A.** inconclusive: 39.2%

**Q.** O=S(=O)(Nc1ncccn1)c1ccc(NC(=S)NCc2ccco2)cc1 was tested. Which inhibition did it give?
**A.** inconclusive: 37.9%

**Q.** Which inhibition does the source give for O=C(NN1C(=O)c2ccccc2NC1c1cccnc1)c1ccc([N+](=O)[O-])cc1 (stereo unspecified) here?
**A.** inconclusive: 31.9%

**Q.** C[C@H]1CN([C@@H](C)CO)C(=O)c2cc(C#CCc3ccccc3)cnc2O[C@@H]1CN(C)CC1CCOCC1 was tested. Which inhibition did it give?
**A.** inconclusive: 41.9%

**Q.** With Cc1cc(C)n(-c2nnc(NCc3ccc(Cl)cc3)nn2)n1 as the molecule, how does the inhibition read?
**A.** inconclusive: 25.2%

**Q.** Cc1nnc(NC(=O)CSc2ccc(-c3cccnc3)nn2)s1 was tested. Which inhibition did it give?
**A.** inconclusive: 42.2%

**Q.** With C[C@]12c3[nH]c4ccccc4c3CCN1C(=O)C(CC(=O)NCc1ccco1)C[C@@H]2C(=O)N1CCOCC1 (stereo partly specified) as the molecule, how does the inhibition read?
**A.** inconclusive: 26.7%

**Q.** For C/C=C/c1ccc2c(c1)O[C@H](CN(C)Cc1ccc(F)cc1)[C@H](C)CN([C@H](C)CO)S2(=O)=O, which inhibition is on record?
**A.** inconclusive: 44.7%

**Q.** For CCc1ccc(CN(C)C(=O)CCc2nnc(-c3ccc(-c4ccccc4)cc3)o2)nc1, which inhibition is on record?
**A.** inconclusive: 39.8%

**Q.** Which inhibition does the source give for C[C@@H]1CN([C@@H](C)CO)C(=O)c2cc(NS(=O)(=O)c3ccccc3)ccc2O[C@H]1CN(C)C(=O)Nc1ccc2c(c1)OCO2 here?
**A.** active: 57.9%

**Q.** COC(=O)C[C@@H]1CC[C@H]2[C@@H](COc3ccc(NC(=O)NC(C)C)cc3C(=O)N2C)O1 was tested. Which inhibition did it give?
**A.** inactive: -5.37%

**Q.** For O=C(Cc1c(F)cccc1Cl)NNC(=O)c1ccncc1, which inhibition is on record?
**A.** inconclusive: 27.6%

**Q.** With CN(Cc1ccc2nsnc2c1)Cc1nc(Cc2cccc(F)c2)no1 as the molecule, how does the inhibition read?
**A.** inconclusive: 39.1%

**Q.** With COc1ccc(NS(=O)(=O)c2ccc(N3CC(O)=C(c4ccccc4)C3=N)cc2)cc1 as the molecule, how does the inhibition read?
**A.** inconclusive: 42.5%

**Q.** How did the inhibition turn out when CN(C)CCNS(=O)(=O)c1ccc(N2CCN(c3ccc(F)cc3)CC2)c([N+](=O)[O-])c1 was run?
**A.** inconclusive: 36%

**Q.** Which inhibition does the source give for COc1cccc(C(C(=O)NC2CCCC2)N2CCN(c3cc(C)nc4ccccc34)CC2)c1OC (stereo unspecified) here?
**A.** inconclusive: 52.3%

**Q.** CCOC(=O)C1(Cc2cccc(OC)c2)CCN(Cc2cccc(OC)c2O)CC1 was tested. Which inhibition did it give?
**A.** inconclusive: 42.9%

**Q.** For C[C@@H]1CN([C@@H](C)CO)C(=O)Cc2cc(NS(=O)(=O)c3cccs3)ccc2O[C@H]1CN(C)C(=O)Nc1ccc(C(F)(F)F)cc1, which inhibition is on record?
**A.** active: 47.2%

**Q.** With Cc1oc(-c2ccccc2F)nc1CS(=O)CC(=O)NCc1ccccn1 (stereo unspecified) as the molecule, how does the inhibition read?
**A.** inactive: 6.83%

**Q.** How did the inhibition turn out when CN1CCN(CCCNC(=O)c2cn(C)c3ccc(S(=O)(=O)N(C)C)cc3c2=O)CC1 was run?
**A.** inconclusive: 30.2%

**Q.** Which inhibition does the source give for Oc1c(/C=N/c2ccccn2)sc2ccccc12 here?
**A.** inconclusive: 38%

**Q.** With C[C@@H]1CN([C@@H](C)CO)C(=O)c2cc(-c3ccc(C#N)cc3)cnc2O[C@@H]1CN(C)C(=O)Nc1ccc(F)cc1 as the molecule, how does the inhibition read?
**A.** inactive: 5.7%

**Q.** With O=C(O)C1C2C=CC(C2)C1C(=O)NCc1ccco1 (stereo unspecified) as the molecule, how does the inhibition read?
**A.** inconclusive: 36.9%

**Q.** For CC(C)CC#Cc1ccc2c(c1)O[C@@H](CN(C)Cc1ccccn1)[C@H](C)CN([C@@H](C)CO)S2(=O)=O, which inhibition is on record?
**A.** inactive: -3.33%

**Q.** How did the inhibition turn out when C[C@@H]1CN([C@H](C)CO)C(=O)c2cccc(NC(=O)Nc3cccc4ccccc34)c2O[C@H]1CN(C)C(=O)Nc1ccc(C(F)(F)F)cc1 was run?
**A.** active: 61.9%

**Q.** For Cc1ccccc1C(=O)NNC(=O)CCc1ccccc1, which inhibition is on record?
**A.** inconclusive: 43.8%

**Q.** How did the inhibition turn out when CCCCN(CC(=O)NCc1ccc(Cl)cc1)S(=O)(=O)c1ccc2c(c1)OCCO2 was run?
**A.** inconclusive: 39.6%

**Q.** How did the inhibition turn out when CCOC(=O)C1(Cc2ccccc2)CCCN(C2CCN(C(C)=O)CC2)C1 (stereo unspecified) was run?
**A.** inactive: 6.58%

**Q.** Which inhibition does the source give for Cc1cccn2c(=O)c3cc(C(=O)NCc4ccc(F)cc4)c(=N)n(CCCN4CCOCC4)c3nc12 here?
**A.** inconclusive: 38%

**Q.** With CO[C@@H]1CN(C)C(=O)c2cc(NC(=O)NC(C)C)ccc2OC[C@H](C)N(Cc2ccccn2)C[C@H]1C as the molecule, how does the inhibition read?
**A.** inactive: 0.277%

**Q.** How did the inhibition turn out when CC(=O)NC1=NC(=O)/C(=C/c2cc(C)n(-c3cccc(C(=O)O)c3)c2C)S1 was run?
**A.** inactive: 0.7%

**Q.** How did the inhibition turn out when C/C=C/c1ccc([C@H]2[C@@H](CO)N3CCCCN(C(=O)Nc4ccc(OC)cc4)C[C@@H]23)cc1 was run?
**A.** inconclusive: 46.2%

**Q.** CCOC(=O)C1CCN(C(=O)c2ccc(Cl)c(NC3=NC4CS(=O)(=O)CC4S3)c2)CC1 (stereo unspecified) was tested. Which inhibition did it give?
**A.** inactive: 0.695%

**Q.** For COc1ccc(N=C2S/C(=C\c3ccc(OCC(=O)O)cc3)C(=O)N2CCc2c[nH]c3ccccc23)cc1, which inhibition is on record?
**A.** active: 31.5%

**Q.** How did the inhibition turn out when O=C(Cn1cc(C(=O)c2ccco2)c2ccccc21)Nc1ccccc1F was run?
**A.** inconclusive: 31.3%

**Q.** Which inhibition does the source give for CC1(C)Cc2cccc(OCC(=O)NCCOc3ccccc3)c2O1 here?
**A.** inconclusive: 58.9%

**Q.** How did the inhibition turn out when Cc1ccc(CSC2=NCCN2C(=O)C(C)Oc2ccccc2)cc1 (stereo unspecified) was run?
**A.** inconclusive: 41.1%

**Q.** How did the inhibition turn out when COc1cc(OC)c(OC)cc1CNc1cc(C)ccc1OC was run?
**A.** inconclusive: 34.3%

**Q.** How did the inhibition turn out when CN(Cc1cccnc1)C(=O)CNC(=O)c1ccc(Cl)cc1Cl was run?
**A.** inconclusive: 44.2%

**Q.** Which inhibition does the source give for C[C@@H]1CN([C@@H](C)CO)C(=O)c2cc(NS(=O)(=O)c3cn(C)cn3)ccc2O[C@@H](C)CCCCO[C@H]1CN(C)Cc1ccc(C(=O)O)cc1 here?
**A.** inactive: -3.92%

**Q.** Cc1ccnc(NC(=S)N2CCN(c3cccc(C(F)(F)F)c3)CC2)c1 was tested. Which inhibition did it give?
**A.** inconclusive: 53.3%

**Q.** CCC1CCC(C(=O)NC(CCSC)C(=O)NCCN(CC(C)C)CC(C)C)CC1 (stereo unspecified) was tested. Which inhibition did it give?
**A.** inconclusive: 37.8%

**Q.** For Cc1nc2c(-c3ccc(Cl)cc3)c(C)[nH]n2c(=O)c1Cc1ccccc1, which inhibition is on record?
**A.** inactive: -4.36%

**Q.** How did the inhibition turn out when CCn1c(/C=C/c2cc(Br)ccc2O)nc2ccccc2c1=O was run?
**A.** inconclusive: 29.1%
